Some of the results follow.
Columns and labels:
Experiment in all cases: glycan array binding signal (z-score within array); higher = stronger binding
Conditions in all cases: glycan notation: IUPAC condensed, linker removed
[1] = target: GalNAc(a1-3)GalNAc(a1-3)Gal(a1-4)Gal(b1-4)GlcNAc
Summary of the method: (§1)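 The Consortium for Functional Glycomics database supplied 3228 glycan arrays, of which those lacking an available protein sequence were dropped. The binding signal, a within-array Z-score, was averaged across arrays of the same protein sequence and across linkers. Negative scores can be read as non-binding.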

[2] = target: GalNAc(a1-3)GalNAc(b1-3)Gal(a1-4)Gal(b1-4)Glc
Summary of the method: as §1

[3] = target: GalNAc(a1-3)GalNAc(b1-3)Gal(a1-4)Gal(b1-4)GlcNAc
Summary of the method: as §1

[4] = target: GalNAc(b1-3)Gal
Summary of the method: as §1

[5] = target: GalNAc(b1-3)Gal(a1-4)Gal(b1-4)GlcNAc
Summary of the method: as §1

[6] = target: GalNAc(b1-3)Gal(a1-4)Gal(b1-4)GlcNAc(b1-3)Gal(b1-4)Glc
Summary of the method: as §1

[7] = target: GalNAc(b1-3)Gal(a1-6)Gal(b1-4)Glc
Summary of the method: as §1

[8] = target: GalNAc(b1-3)GalNAc
Summary of the method: as §1

[9] = target: GalNAc(b1-4)Gal(b1-4)Glc
Summary of the method: as §1

[10] = target: GalNAc(b1-4)GlcNAc
Summary of the method: as §1

[11] = target: GalNAc(b1-4)GlcNAc(b1-2)Man(a1-3)[GalNAc(b1-4)GlcNAc(b1-2)Man(a1-6)]Man(b1-4)GlcNAc(b1-4)GlcNAc
Summary of the method: as §1

[12] = target: GalNAc(b1-4)GlcNAc6S
Summary of the method: as §1

[13] = target: GalNAc(b1-6)GalNAc
Summary of the method: as §1

[14] = target: GalNAc3S(b1-4)GlcNAc
Summary of the method: as §1

[15] = target: GalNAc3S(b1-4)GlcNAc3S
Summary of the method: as §1

[16] = target: GalNAc4S6S(b1-4)GlcNAc
Summary of the method: as §1

[17] = target: GalNAc6S(b1-4)GlcNAc
Summary of the method: as §1

[18] = target: Glc(a1-4)Glc
Summary of the method: as §1

[19] = target: Glc(a1-4)Glc(a1-4)Glc(a1-4)Glc
Summary of the method: as §1

[20] = target: Glc(a1-6)Glc(a1-6)Glc
Summary of the method: as §1

[21] = target: Glc(a1-6)Glc(a1-6)Glc(a1-6)Glc
Summary of the method: as §1

[22] = target: Glc(b1-4)Glc
Summary of the method: as §1

B1: Gal 4 (Homo sapiens), Q8K419 (protein)
chain: MAYVPAPGYQPTYNPTLPYKRPIPGGLSVGMSVYIQGMAKENMRRFHVNFAVGQDDGADVAFHFNPRFDGWDKVVFNTMQSGQWGKEEKKKSMPFQKGKHFELVFMVMPEHYKVVVNGNSFYEYGHRLPVQMVTHLQVDGDLELQSINFLGGQPAAAPYPGAMTIPAYPAGSPGYNPPQMNTLPVMTGPPVFNPRVPYVGALQGGLTVRRTIIIKGYVLPTARNFVINFKVGSSGDIALHLNPRIGDSVVRNSFMNGSWGAEERKVAYNPFGPGQFFDLSIRCGMDRFKVFANGQHLFDFSHRFQAFQMVDTLEINGDITLSYVQI
With B1 the “glycan array binding signal (z-score)” value [1] was -0.039, the “glycan array binding signal (z-score)” value [2] was 0.616 and the “glycan array binding signal (z-score)” value [3] was 0.701. For the same binder, the “glycan array binding signal (z-score)” value [4] was 0.837, the “glycan array binding signal (z-score)” value [5] was -0.146 and the “glycan array binding signal (z-score)” value [6] was 0.464. For the same binder, the “glycan array binding signal (z-score)” value [7] was -0.111, the “glycan array binding signal (z-score)” value [8] was -0.182 and the “glycan array binding signal (z-score)” value [9] was -0.211. For the same binder, the “glycan array binding signal (z-score)” value [10] was -0.18, the “glycan array binding signal (z-score)” value [11] was -0.215 and the “glycan array binding signal (z-score)” value [12] was -0.07. The “glycan array binding signal (z-score)” value [13] was -0.201, the “glycan array binding signal (z-score)” value [14] was -0.086 and the “glycan array binding signal (z-score)” value [15] was -0.214. The “glycan array binding signal (z-score)” value [16] was -0.209, the “glycan array binding signal (z-score)” value [17] was -0.213 and the “glycan array binding signal (z-score)” value [18] was -0.206. The “glycan array binding signal (z-score)” value [19] was -0.213, the “glycan array binding signal (z-score)” value [20] was -0.207 and the “glycan array binding signal (z-score)” value [21] was -0.214. For the same binder, the “glycan array binding signal (z-score)” value [22] was -0.202.

Source: the supplement of paper PMC8728848
